# Measurements from the supplement of paper PMC8728848.
# This is one part of the list.
# Tests used:
# Test in all cases: glycan array binding signal (z-score within array); higher = stronger binding
# Details in all cases: glycan notation: IUPAC condensed, linker removed
# [1] = target: Gal(b1-3)[Fuc(a1-4)]GlcNAc
# Procedure, shortened: (§1)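 Columns mapping to the same glycan were averaged after glycan names were converted to IUPAC-condensed notation. The data come from 3228 arrays in the Consortium for Functional Glycomics database, limited to those with an available protein sequence. Binding is reported as a within-array Z-score averaged across arrays of one protein sequence and across linkers.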
# [2] = target: Gal(b1-3)[Fuc(a1-4)]GlcNAc(b1-2)Man(a1-3)[Gal(b1-3)[Fuc(a1-4)]GlcNAc(b1-2)Man(a1-6)]Man(b1-4)GlcNAc(b1-4)GlcNAc
# Procedure, shortened: as §1
# [3] = target: Gal(b1-3)[Fuc(a1-4)]GlcNAc(b1-2)Man(a1-3)[Gal(b1-3)[Fuc(a1-4)]GlcNAc(b1-2)Man(a1-6)]Man(b1-4)GlcNAc(b1-4)[Fuc(a1-6)]GlcNAc
# Procedure, shortened: as §1
# [4] = target: Gal(b1-3)[Fuc(a1-4)]GlcNAc(b1-3)Gal(b1-3)[Fuc(a1-4)]GlcNAc
# Procedure, shortened: as §1
# [5] = target: Gal(b1-3)[Fuc(a1-4)]GlcNAc(b1-3)Gal(b1-4)GlcNAc
# Procedure, shortened: as §1
# [6] = target: Gal(b1-3)[Fuc(a1-4)]GlcNAc(b1-3)Gal(b1-4)[Fuc(a1-3)]GlcNAc
# Procedure, shortened: as §1
# [7] = target: Gal(b1-3)[GlcNAc(b1-6)]GalNAc
# Procedure, shortened: as §1
# [8] = target: Gal(b1-3)[Neu5Ac(a2-6)]GalNAc
# Procedure, shortened: as §1
# [9] = target: Gal(b1-3)[Neu5Ac(a2-6)]GlcNAc(b1-6)Gal(b1-4)Glc
# Procedure, shortened: as §1
# [10] = target: Gal(b1-3)[Neu5Ac(b2-6)]GalNAc
# Procedure, shortened: as §1
# [11] = target: Gal(b1-4)GalNAc(a1-3)[Fuc(a1-2)]Gal(b1-4)GlcNAc
# Procedure, shortened: as §1
# [12] = target: Gal(b1-4)GalNAc(b1-3)[Fuc(a1-2)]Gal(b1-4)GlcNAc
# Procedure, shortened: as §1
# Gal(b1-4)Glc = target: Gal(b1-4)Glc
# Procedure, shortened: as §1
# Gal(b1-4)Glc6S = target: Gal(b1-4)Glc6S
# Procedure, shortened: as §1
# Gal(b1-4)GlcNAc = target: Gal(b1-4)GlcNAc
# Procedure, shortened: as §1
# [13] = target: Gal(b1-4)GlcNAc(a1-6)Gal(b1-4)GlcNAc
# Procedure, shortened: as §1
# [14] = target: Gal(b1-4)GlcNAc(b1-2)Man(a1-3)Man(b1-4)GlcNAc(b1-4)GlcNAc
# Procedure, shortened: as §1
# [15] = target: Gal(b1-4)GlcNAc(b1-2)Man(a1-3)[Gal(b1-4)GlcNAc(b1-2)Man(a1-6)]Man(b1-4)GlcNAc(b1-4)GlcNAc
# Procedure, shortened: as §1
# [16] = target: Gal(b1-4)GlcNAc(b1-2)Man(a1-3)[Gal(b1-4)GlcNAc(b1-2)Man(a1-6)]Man(b1-4)GlcNAc(b1-4)[Fuc(a1-6)]GlcNAc
# Procedure, shortened: as §1
# [17] = target: Gal(b1-4)GlcNAc(b1-2)Man(a1-3)[Man(a1-6)]Man(b1-4)GlcNAc(b1-4)GlcNAc
# Procedure, shortened: as §1
# [18] = target: Gal(b1-4)GlcNAc(b1-2)Man(a1-6)Man(b1-4)GlcNAc(b1-4)GlcNAc
# Procedure, shortened: as §1
# [19] = target: Gal(b1-4)GlcNAc(b1-2)Man(a1-6)[Man(a1-3)]Man(b1-4)GlcNAc(b1-4)GlcNAc
# Procedure, shortened: as §1
# [20] = target: Gal(b1-4)GlcNAc(b1-2)[Gal(b1-4)GlcNAc(b1-4)]Man(a1-3)[Gal(b1-4)GlcNAc(b1-2)Man(a1-6)]Man(b1-4)GlcNAc(b1-4)GlcNAc
# Procedure, shortened: as §1
# [21] = target: Gal(b1-4)GlcNAc(b1-3)Gal(b1-3)GlcNAc
# Procedure, shortened: as §1
# [22] = target: Gal(b1-4)GlcNAc(b1-3)Gal(b1-4)Glc
# Procedure, shortened: as §1
# [23] = target: Gal(b1-4)GlcNAc(b1-3)Gal(b1-4)GlcNAc
# Procedure, shortened: as §1
# [24] = target: Gal(b1-4)GlcNAc(b1-3)Gal(b1-4)GlcNAc(b1-3)Gal(b1-4)GlcNAc
# Procedure, shortened: as §1
# [25] = target: Gal(b1-4)GlcNAc(b1-3)Gal(b1-4)[Fuc(a1-3)]GlcNAc(b1-3)Gal(b1-4)[Fuc(a1-3)]GlcNAc
# Procedure, shortened: as §1
# [26] = target: Gal(b1-4)GlcNAc(b1-3)GalNAc
# Procedure, shortened: as §1
# [27] = target: Gal(b1-4)GlcNAc(b1-3)[Gal(b1-4)GlcNAc(b1-6)]Gal(b1-4)GlcNAc
# Procedure, shortened: as §1
binder,measurement,setting,value
"Eap (Staphylococcus aureus), A0A7L5PYT7 (protein) MKFKSLITTTLALGVLASTGANFNNNEAAAAAKPLDKSSSSLHHGYSKVHVPYAITVNGTSQNILSSLTFNKNQNISYKDLEDRVKSVLKSDRGISDIDLRLSKQAKYTVYFKNGTKKVIDLKAGIYTADLINTSEIKAININVDTKKQVEDKKKDKANYQVPYTITVNGTSQNILSNLTFNKNQNISYKDLEDKVKSVLESNRGITDVDLRLSKQAKYTVNFKNGTKKVIDLKSGIYTANLINSSDIKSININVDTKKHIENKAKRNYQVPYSINLNGTSTNILSNLSFSNKPWTNYKNLTSQIKSVLKHDRGISEQDLKYAKKAYYTVYFKNGGKRILQLNSKNYTANLVHAKDVKRIEITVKTGTKAKADRYVPYTIAVNGTSTPILSDLKFTGDPRVGYKDISKKVKSVLKHDRGIGERELKYAKKATYTVHFKNGTKKVININSNISQLNLLYVQDIKKIDIDVKTGTKAKADSYVPYTIAVNGTSTPILSKLKISNKQLISYKYLNDKVKSVLKSERGISDLDLKFAKQAKYTVYFKNGKKQVVNLKSDIFTPNLFSAKDIKKIDIDVKQYTKSKKNK",glycan array binding signal (z-score),[1],0.185
same,glycan array binding signal (z-score),[2],-0.132
same,glycan array binding signal (z-score),[3],-0.278
same,glycan array binding signal (z-score),[4],-0.569
same,glycan array binding signal (z-score),[5],-0.382
same,glycan array binding signal (z-score),[6],-0.491
same,glycan array binding signal (z-score),[7],-0.474
same,glycan array binding signal (z-score),[8],0.571
same,glycan array binding signal (z-score),[9],-0.584
same,glycan array binding signal (z-score),[10],-0.432
same,glycan array binding signal (z-score),[11],-0.437
same,glycan array binding signal (z-score),[12],-0.465
same,glycan array binding signal (z-score),Gal(b1-4)Glc,0.255
same,glycan array binding signal (z-score),Gal(b1-4)Glc6S,0.163
same,glycan array binding signal (z-score),Gal(b1-4)GlcNAc,-0.336
same,glycan array binding signal (z-score),[13],-0.276
same,glycan array binding signal (z-score),[14],-0.568
same,glycan array binding signal (z-score),[15],-0.431
same,glycan array binding signal (z-score),[16],-0.308
same,glycan array binding signal (z-score),[17],-0.191
same,glycan array binding signal (z-score),[18],-0.437
same,glycan array binding signal (z-score),[19],-0.543
same,glycan array binding signal (z-score),[20],-0.618
same,glycan array binding signal (z-score),[21],-0.611
same,glycan array binding signal (z-score),[22],-0.119
same,glycan array binding signal (z-score),[23],0.059
same,glycan array binding signal (z-score),[24],-0.513
same,glycan array binding signal (z-score),[25],-0.515
same,glycan array binding signal (z-score),[26],-0.254
same,glycan array binding signal (z-score),[27],-0.448
